Results are given in words; binding and its absence hold for the method and conditions named. Binding seen in cells or lysates may run through a third protein. Some binding calls cover weakened binding; strength is not graded here. For some assays here: Sequences can lack the tags named with a protein.

Amino acid sequences for entries named in this document (tags omitted). A change or cut given only in a name is not applied to a line headed by its entry.
UniProt Q9ULH1: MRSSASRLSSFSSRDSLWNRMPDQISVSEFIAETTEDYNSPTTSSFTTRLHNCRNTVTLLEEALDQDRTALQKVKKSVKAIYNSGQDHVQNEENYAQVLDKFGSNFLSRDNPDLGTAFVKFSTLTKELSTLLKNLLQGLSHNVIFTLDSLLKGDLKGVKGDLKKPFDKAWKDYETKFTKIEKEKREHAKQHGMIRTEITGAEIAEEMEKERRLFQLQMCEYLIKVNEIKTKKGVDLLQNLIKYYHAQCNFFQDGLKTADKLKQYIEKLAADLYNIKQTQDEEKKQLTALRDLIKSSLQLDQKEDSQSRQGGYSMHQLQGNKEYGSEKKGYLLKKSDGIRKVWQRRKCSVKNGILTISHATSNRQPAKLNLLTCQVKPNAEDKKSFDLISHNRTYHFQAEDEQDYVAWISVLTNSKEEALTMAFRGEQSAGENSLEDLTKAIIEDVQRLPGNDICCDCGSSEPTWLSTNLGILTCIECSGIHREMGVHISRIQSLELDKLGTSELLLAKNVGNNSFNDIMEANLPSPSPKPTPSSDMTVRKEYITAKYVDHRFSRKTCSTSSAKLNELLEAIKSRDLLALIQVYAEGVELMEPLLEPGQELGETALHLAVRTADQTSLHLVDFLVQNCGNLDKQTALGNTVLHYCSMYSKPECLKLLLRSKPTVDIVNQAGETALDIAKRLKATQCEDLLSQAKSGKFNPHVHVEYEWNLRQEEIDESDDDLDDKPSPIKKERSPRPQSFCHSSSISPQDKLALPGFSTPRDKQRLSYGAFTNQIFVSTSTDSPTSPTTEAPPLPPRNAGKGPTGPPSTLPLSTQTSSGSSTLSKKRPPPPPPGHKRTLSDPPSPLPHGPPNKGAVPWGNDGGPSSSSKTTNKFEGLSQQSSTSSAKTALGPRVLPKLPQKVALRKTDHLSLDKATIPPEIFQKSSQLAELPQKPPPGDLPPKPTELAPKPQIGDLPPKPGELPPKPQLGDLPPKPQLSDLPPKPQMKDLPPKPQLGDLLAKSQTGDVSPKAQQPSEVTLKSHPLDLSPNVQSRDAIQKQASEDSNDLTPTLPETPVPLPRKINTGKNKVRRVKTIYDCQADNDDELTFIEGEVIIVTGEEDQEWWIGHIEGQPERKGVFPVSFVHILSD
UniProt Q9HCM4: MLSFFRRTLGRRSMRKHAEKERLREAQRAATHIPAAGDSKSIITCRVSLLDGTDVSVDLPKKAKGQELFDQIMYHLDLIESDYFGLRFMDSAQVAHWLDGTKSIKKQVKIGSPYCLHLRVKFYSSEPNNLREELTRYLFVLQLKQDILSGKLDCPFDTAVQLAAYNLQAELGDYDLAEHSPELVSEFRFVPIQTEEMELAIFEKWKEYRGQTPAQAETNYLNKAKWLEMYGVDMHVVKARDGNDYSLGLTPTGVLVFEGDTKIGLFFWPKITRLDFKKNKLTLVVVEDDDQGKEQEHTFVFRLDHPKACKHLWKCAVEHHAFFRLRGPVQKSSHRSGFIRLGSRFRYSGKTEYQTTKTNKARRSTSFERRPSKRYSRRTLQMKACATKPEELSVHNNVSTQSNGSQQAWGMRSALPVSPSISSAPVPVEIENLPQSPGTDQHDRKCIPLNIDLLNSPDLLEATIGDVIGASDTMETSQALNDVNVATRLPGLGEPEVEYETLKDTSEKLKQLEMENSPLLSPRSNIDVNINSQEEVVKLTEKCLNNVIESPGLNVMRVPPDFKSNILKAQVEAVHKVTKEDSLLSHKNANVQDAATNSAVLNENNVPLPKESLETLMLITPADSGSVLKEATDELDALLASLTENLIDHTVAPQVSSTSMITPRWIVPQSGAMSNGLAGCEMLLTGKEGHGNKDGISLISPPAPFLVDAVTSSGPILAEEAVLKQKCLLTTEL
UniProt Q03113: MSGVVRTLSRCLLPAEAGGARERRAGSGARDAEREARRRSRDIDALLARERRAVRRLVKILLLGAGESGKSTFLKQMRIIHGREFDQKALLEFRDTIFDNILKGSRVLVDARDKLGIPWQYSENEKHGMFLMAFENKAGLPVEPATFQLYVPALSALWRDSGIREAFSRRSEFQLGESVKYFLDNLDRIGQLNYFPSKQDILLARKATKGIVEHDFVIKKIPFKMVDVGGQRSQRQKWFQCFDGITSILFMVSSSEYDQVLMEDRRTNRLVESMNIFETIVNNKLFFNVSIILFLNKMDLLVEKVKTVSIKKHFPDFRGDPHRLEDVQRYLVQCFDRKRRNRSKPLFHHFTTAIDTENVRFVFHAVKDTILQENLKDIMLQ
UniProt Q14344: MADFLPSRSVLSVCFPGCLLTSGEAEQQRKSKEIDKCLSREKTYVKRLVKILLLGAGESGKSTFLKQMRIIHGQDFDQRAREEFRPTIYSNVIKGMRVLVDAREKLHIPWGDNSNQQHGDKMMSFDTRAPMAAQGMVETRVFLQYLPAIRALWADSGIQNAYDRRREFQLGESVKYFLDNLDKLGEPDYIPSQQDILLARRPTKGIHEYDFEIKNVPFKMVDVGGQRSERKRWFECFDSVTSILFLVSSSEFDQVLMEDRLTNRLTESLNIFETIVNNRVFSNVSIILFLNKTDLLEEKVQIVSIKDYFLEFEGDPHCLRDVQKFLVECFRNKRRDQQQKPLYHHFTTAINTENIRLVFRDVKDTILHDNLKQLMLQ
UniProt P04899: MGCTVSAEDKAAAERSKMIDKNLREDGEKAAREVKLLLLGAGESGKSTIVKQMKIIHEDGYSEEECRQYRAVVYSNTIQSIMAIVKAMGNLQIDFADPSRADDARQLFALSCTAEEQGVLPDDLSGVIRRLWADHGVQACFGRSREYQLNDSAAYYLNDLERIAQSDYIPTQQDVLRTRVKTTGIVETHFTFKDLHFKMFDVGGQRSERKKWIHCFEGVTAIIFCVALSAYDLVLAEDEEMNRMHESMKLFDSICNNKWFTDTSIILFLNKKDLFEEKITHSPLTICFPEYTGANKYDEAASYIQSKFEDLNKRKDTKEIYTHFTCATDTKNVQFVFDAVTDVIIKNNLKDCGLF
UniProt P50148: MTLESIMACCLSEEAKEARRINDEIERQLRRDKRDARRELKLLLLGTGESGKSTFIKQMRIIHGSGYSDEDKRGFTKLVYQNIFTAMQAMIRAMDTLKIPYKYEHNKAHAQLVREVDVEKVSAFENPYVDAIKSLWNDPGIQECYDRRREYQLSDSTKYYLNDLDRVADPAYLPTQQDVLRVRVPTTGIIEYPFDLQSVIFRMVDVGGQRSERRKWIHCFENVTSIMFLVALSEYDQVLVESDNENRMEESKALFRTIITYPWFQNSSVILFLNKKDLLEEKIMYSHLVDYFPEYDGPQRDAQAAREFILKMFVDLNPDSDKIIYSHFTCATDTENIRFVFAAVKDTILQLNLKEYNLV
UniProt P62873: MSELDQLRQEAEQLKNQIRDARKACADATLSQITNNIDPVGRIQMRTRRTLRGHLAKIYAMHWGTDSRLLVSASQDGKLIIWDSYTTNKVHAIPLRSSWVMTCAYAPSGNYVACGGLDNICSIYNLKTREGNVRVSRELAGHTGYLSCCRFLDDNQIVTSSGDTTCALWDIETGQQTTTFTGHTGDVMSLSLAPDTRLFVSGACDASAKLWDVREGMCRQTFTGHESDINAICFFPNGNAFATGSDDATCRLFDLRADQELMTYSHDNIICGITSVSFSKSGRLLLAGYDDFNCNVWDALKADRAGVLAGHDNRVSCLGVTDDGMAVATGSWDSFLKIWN

From paper PMC4748122 come the findings set out here.

The target of test [1] is AMAP1, endogenous in 786-O cells (human (endogenous in 786-O)) (UniProt Q9ULH1). As to the kind of experiment: co-IP; anti-AMAP1 mouse monoclonal antibody with Protein A-Sepharose, lysate of LPA-stimulated 786-O cells in NP-40 buffer, 1 h at 4 °C; endogenous proteins; immunoblotting. (A western blot detects proteins with antibodies after separation by electrophoresis.)
The target of test [2] is T1, EFA6B, endogenous in 786-O cells (human (endogenous in 786-O)) (UniProt Q8NDX1).
T1 sequence: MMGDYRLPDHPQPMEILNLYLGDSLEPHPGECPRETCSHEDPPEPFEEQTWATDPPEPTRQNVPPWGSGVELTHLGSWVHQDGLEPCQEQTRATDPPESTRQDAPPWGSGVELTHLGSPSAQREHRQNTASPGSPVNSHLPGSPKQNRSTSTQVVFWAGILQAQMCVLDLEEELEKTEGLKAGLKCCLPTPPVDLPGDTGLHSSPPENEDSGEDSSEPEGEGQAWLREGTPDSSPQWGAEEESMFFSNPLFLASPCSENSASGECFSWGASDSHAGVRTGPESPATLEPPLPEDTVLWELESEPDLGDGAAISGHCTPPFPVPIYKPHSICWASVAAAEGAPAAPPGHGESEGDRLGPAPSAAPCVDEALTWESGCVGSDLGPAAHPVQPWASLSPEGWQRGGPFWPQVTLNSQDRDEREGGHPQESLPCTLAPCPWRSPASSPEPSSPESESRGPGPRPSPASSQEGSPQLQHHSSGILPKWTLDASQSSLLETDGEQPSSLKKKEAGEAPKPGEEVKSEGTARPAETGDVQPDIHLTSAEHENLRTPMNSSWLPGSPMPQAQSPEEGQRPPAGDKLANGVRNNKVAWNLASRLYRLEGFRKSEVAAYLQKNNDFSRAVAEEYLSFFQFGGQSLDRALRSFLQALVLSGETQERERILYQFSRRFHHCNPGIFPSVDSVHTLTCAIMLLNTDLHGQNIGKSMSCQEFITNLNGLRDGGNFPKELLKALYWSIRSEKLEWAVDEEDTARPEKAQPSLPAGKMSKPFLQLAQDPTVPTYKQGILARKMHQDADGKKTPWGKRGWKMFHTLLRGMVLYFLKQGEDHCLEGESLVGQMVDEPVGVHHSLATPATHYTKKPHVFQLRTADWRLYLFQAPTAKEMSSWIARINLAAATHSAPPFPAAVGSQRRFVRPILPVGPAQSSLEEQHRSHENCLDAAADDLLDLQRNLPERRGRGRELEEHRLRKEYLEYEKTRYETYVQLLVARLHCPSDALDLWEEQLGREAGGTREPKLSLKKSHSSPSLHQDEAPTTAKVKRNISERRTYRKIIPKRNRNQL
As to the kind of experiment: co-IP; anti-EFA6B mouse polyclonal antibody with Protein G-Sepharose, 5 mg lysate of LPA-stimulated 786-O cells in NP-40 buffer, 1 h at 4 °C; endogenous proteins; immunoblotting.

In test [3] the target is T2, HA-EFA6B, full length, expressed in 786-O cells instead of the endogenous EFA6B (human) (UniProt Q8NDX1).
T2 sequence: T1 sequence
As to the kind of experiment: co-IP; anti-HA immunoprecipitation (Protein G-Sepharose, 1 h at 4 °C) from 750 μg lysate of 786-O cells expressing HA-EFA6B or its mutant instead of endogenous EFA6B; cells stimulated with LPA for 5 min or left untreated; NP-40 buffer; endogenous G-proteins detected by immunoblotting.

The target of test [4] is T3, HA-EFA6B RGS-like domain-deleted mutant (Δ121–324aa), expressed in 786-O cells in which endogenous EFA6B was silenced (human) (UniProt Q8NDX1).
T3 sequence: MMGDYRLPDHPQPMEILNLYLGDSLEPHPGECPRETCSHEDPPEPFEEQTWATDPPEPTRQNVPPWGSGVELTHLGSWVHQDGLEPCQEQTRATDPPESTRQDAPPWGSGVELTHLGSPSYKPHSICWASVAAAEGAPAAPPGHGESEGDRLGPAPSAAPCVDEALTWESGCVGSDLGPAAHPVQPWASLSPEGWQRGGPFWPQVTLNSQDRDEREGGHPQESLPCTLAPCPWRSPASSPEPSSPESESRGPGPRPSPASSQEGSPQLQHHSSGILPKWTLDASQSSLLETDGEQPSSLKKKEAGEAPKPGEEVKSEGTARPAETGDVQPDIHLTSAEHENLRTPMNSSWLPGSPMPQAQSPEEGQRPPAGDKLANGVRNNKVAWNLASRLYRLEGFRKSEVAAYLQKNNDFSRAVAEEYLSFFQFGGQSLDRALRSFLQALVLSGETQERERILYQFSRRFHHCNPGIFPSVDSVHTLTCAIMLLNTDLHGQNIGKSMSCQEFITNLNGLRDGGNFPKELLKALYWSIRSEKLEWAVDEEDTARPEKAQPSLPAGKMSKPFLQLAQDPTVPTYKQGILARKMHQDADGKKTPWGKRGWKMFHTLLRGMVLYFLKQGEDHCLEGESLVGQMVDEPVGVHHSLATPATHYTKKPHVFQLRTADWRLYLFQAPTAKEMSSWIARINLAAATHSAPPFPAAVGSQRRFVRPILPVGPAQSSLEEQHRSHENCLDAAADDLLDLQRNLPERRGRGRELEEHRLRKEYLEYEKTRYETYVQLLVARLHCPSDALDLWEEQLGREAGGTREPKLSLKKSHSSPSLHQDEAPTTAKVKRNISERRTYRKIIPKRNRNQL
Described as above.

The target of test [5] is T4, HA-EFA6B, full length, expressed in 293T cells (human) (UniProt Q8NDX1).
T4 sequence: T1 sequence
Nature of the test: co-IP; 293T cells co-transfected with HA-tagged EFA6 family member or EFA6B mutant and Gα12QL, Gα13QL, GαqQL or Gα12GA; lysed after 36 h in NP-40 buffer; anti-HA immunoprecipitation and immunoblotting.

Turning to “EPB41L5, endogenous in 786-O cells (from UniProt Q9HCM4 1-733)”, in test [1], the binding result is “binds”.

As for “Gα12, endogenous in 786-O cells (from UniProt Q03113 1-381)”, the binding entry in test [2] is “binds”; in test [3], “binds”; in test [4] it was “no binding”.

Regarding “Gα12G230A, dominant-negative (GTP-binding-defective) mutant of Gα12 (from UniProt Q03113 1-381)”, the binding result in test [5] is listed as “no binding”.

As to “Gα13, endogenous in 786-O cells (from UniProt Q14344 1-377)”, the binding result in test [2] and in test [3] was “no binding” throughout.

For the substance “Gαi2, endogenous in 786-O cells (from UniProt P04899 1-355)”, the binding entry in test [3] is given as “no binding”.

Turning to “Gαq, endogenous in 786-O cells (from UniProt P50148 1-359)”, the binding entry in test [2] and in test [3] was “no binding” each time.

“Gβ1, endogenous in 786-O cells (from UniProt P62873 1-340)”: the binding entry in test [3] is “no binding”.
